# In the supplement of paper PMC4967469:
# By IC50 is meant the dose at which the fit gives 50% viability; a limit (>, <) means that the fit lies beyond the doses tested. AUC, from the same fit, is the share of area under the viability curve across the 256-fold dose range; the more sensitive the line, the further below 1. For part of these data: Any top dose called inferred was calculated from the reported fits. For part of these data: An entry number marks a drug with two screens in the source, which often give different values.
# How the values were obtained:
# Assay in all cases: Viability of human cancer cell lines after 72 h of drug (GDSC screen)
# Docetaxel = compound: CC(=O)O[C@@]12CO[C@@H]1C[C@H](O)[C@@]1(C)C(=O)[C@H](O)C3=C(C)[C@@H](OC(=O)[C@H](O)[C@@H](NC(=O)OC(C)(C)C)c4ccccc4)C[C@@](O)([C@@H](OC(=O)c4ccccc4)[C@H]21)C3(C)C [Docetaxel]; details: top dose 0.0125 µM
# Protocol: (§1)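 Human cancer cell lines in 384-well plates, medium with 10% serum, drug for 72 h over a 256-fold dose range (nine 2-fold or five 4-fold steps up to the top dose). Adherent lines were fixed and stained with the nucleic acid dye Syto60, suspension lines read with resazurin; signal relative to control wells, capped at 0 and 100%. One two-parameter sigmoid per drug and line, fitted in a mixed model over all curves with the slope shared within a line.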
# AMG-706 = compound: CC1(C)CNc2cc(NC(=O)c3cccnc3NCc3ccncc3)ccc21 [AMG-706]; details: top dose 2 µM; top dose inferred
# Protocol: as §1
# Cyclopamine = compound: CC1=C2C[C@H]3[C@@H](CC=C4C[C@@H](O)CC[C@@]43C)[C@@H]2CC[C@]12O[C@@H]1C[C@H](C)CN[C@H]1[C@H]2C [Cyclopamine]; details: top dose 16 µM; top dose inferred
# Protocol: as §1
# JNK Inhibitor VIII = compound: CCOc1nc(NC(=O)Cc2cc(OC)ccc2OC)cc(N)c1C#N [JNK Inhibitor VIII]; details: top dose 10 µM; top dose inferred
# Protocol: as §1
# NSC-207895 = compound: CN1CCN(c2ccc([N+](=O)[O-])c3no[n+]([O-])c23)CC1 [NSC-207895]; details: top dose 20 µM; top dose inferred
# Protocol: as §1
# FTI-277 = compound: COC(=O)[C@H](CCSC)NC(=O)c1ccc(NC[C@@H](N)CS)cc1-c1ccccc1 [FTI-277]; details: top dose 1.024 µM; top dose inferred
# Protocol: as §1
# YM155 = compound: COCC[n+]1c2c(n(Cc3cnccn3)c1C)C(=O)c1ccccc1C2=O [YM155]; details: top dose 5.12 µM
# Protocol: as §1
# OSI-906 = compound: C[C@]1(O)C[C@@H](c2nc(-c3ccc4ccc(-c5ccccc5)nc4c3)c3c(N)nccn32)C1 [OSI-906]; details: top dose 2.56 µM; top dose inferred
# Protocol: as §1
# SB-715992 = compound: Cc1ccc(C(=O)N(CCCN)[C@@H](c2nc3cc(Cl)ccc3c(=O)n2Cc2ccccc2)C(C)C)cc1 [SB-715992]; details: top dose 0.128 µM; top dose inferred
# Protocol: as §1
# JQ1 = compound: Cc1sc2c(c1C)C(c1ccc(Cl)cc1)=N[C@@H](CC(=O)OC(C)(C)C)c1nnc(C)n1-2 [JQ1]
# Protocol: as §1
# Belinostat = compound: O=C(/C=C/c1cccc(S(=O)(=O)Nc2ccccc2)c1)NO [Belinostat]; details: top dose 20 µM; top dose inferred
# Protocol: as §1
# CGP-60474 = compound: OCCCNc1cc(-c2ccnc(Nc3cccc(Cl)c3)n2)ccn1 [CGP-60474]; details: top dose 0.256 µM; top dose inferred
# Protocol: as §1
# JNJ-26854165 = compound: c1ccc2c(CCNc3ccc(Nc4ccncc4)cc3)c[nH]c2c1 [JNJ-26854165]; details: top dose 10 µM
# Protocol: as §1
# [1] = top dose 1 µM, screen: GDSC drug entry 1218, top dose inferred
# [2] = top dose 2.56 µM, screen: GDSC drug entry 163
Cell Line,AUC (Docetaxel),IC50 (Docetaxel),AUC (AMG-706),IC50 (AMG-706),AUC (Cyclopamine),IC50 (Cyclopamine),AUC (JNK Inhibitor VIII),IC50 (JNK Inhibitor VIII),AUC (NSC-207895),IC50 (NSC-207895),AUC (FTI-277),IC50 (FTI-277),AUC (YM155),IC50 (YM155),AUC (OSI-906),IC50 (OSI-906),AUC (SB-715992),IC50 (SB-715992),AUC (JQ1; [1]),IC50 (JQ1; [1]),AUC (JQ1; [2]),IC50 (JQ1; [2]),AUC (Belinostat),IC50 (Belinostat),AUC (CGP-60474),IC50 (CGP-60474),AUC (JNJ-26854165),IC50 (JNJ-26854165)
"D-263MG (glioma, adherent)",0.598,1.54 nM,0.899,> 2000 nM,0.976,> 16000 nM,0.982,> 10000 nM,0.982,> 20000 nM,0.982,> 1020 nM,0.144,< 20 nM,0.983,> 2560 nM,0.979,> 128 nM,0.981,> 1000 nM,0.975,> 2560 nM,0.611,2690 nM,0.855,> 256 nM,0.874,> 10000 nM
"D-283MED (medulloblastoma, adherent)",0.799,5.38 nM,0.972,> 2000 nM,0.991,> 16000 nM,0.987,> 10000 nM,0.991,> 20000 nM,0.988,> 1020 nM,0.937,> 5120 nM,0.989,> 2560 nM,0.984,> 128 nM,0.99,> 1000 nM,0.854,1750 nM,0.978,> 20000 nM,0.979,> 256 nM,0.863,7430 nM
"DG-75 (Burkitt lymphoma, suspension)",0.792,5.74 nM,0.973,> 2000 nM,0.976,> 16000 nM,0.963,> 10000 nM,0.987,> 20000 nM,0.985,> 1020 nM,0.066,< 20 nM,0.987,> 2560 nM,0.827,79.9 nM,0.968,> 1000 nM,0.844,1870 nM,0.476,1080 nM,0.811,138 nM,0.888,> 10000 nM
"DMS-79 (small cell lung carcinoma, suspension)",0.98,> 12.5 nM,0.987,> 2000 nM,0.961,> 16000 nM,0.984,> 10000 nM,0.933,> 20000 nM,0.986,> 1020 nM,0.068,< 20 nM,0.987,> 2560 nM,0.978,> 128 nM,0.984,> 1000 nM,0.973,> 2560 nM,0.469,1010 nM,0.86,> 256 nM,0.892,> 10000 nM
"DND-41 (T-cell leukaemia, suspension)",0.968,> 12.5 nM,0.99,> 2000 nM,0.975,> 16000 nM,0.989,> 10000 nM,0.954,> 20000 nM,0.96,> 1020 nM,0.447,234 nM,0.947,> 2560 nM,0.667,21.9 nM,0.989,> 1000 nM,0.591,274 nM,0.18,160 nM,0.62,32.8 nM,0.868,7340 nM
"DU-4475 (breast, suspension)",0.937,> 12.5 nM,0.99,> 2000 nM,0.992,> 16000 nM,0.981,> 10000 nM,0.977,> 20000 nM,0.959,> 1020 nM,0.261,78.2 nM,0.947,> 2560 nM,0.776,41.6 nM,0.983,> 1000 nM,0.635,349 nM,0.271,324 nM,0.78,85.9 nM,0.874,6750 nM
"EJM (lymphoid neoplasm, semi-adherent)",0.879,9.39 nM,0.992,> 2000 nM,0.989,> 16000 nM,0.992,> 10000 nM,0.918,> 20000 nM,0.992,> 1020 nM,0.033,< 20 nM,0.954,> 2560 nM,0.814,56.2 nM,0.991,> 1000 nM,0.927,> 2560 nM,0.309,403 nM,0.768,81.5 nM,0.95,> 10000 nM
"ES5 (Ewing sarcoma, adherent)",0.562,1.19 nM,0.929,> 2000 nM,0.979,> 16000 nM,0.97,> 10000 nM,0.88,> 20000 nM,0.977,> 1020 nM,0.035,< 20 nM,0.487,147 nM,0.61,16.8 nM,0.966,> 1000 nM,0.765,1070 nM,0.136,< 78.1 nM,0.958,> 256 nM,0.908,> 10000 nM
"ETK-1 (biliary tract, adherent)",0.542,1.03 nM,0.983,> 2000 nM,0.983,> 16000 nM,0.983,> 10000 nM,0.838,16300 nM,0.952,> 1020 nM,0.033,< 20 nM,0.9,> 2560 nM,0.797,69.7 nM,0.978,> 1000 nM,0.764,1050 nM,0.407,669 nM,0.568,25.2 nM,0.868,> 10000 nM
